The labels stand for the following.
B1: IL2-AT120 (membrane distal 120 amino acids of the C-terminal tail of PC1 fused to the IL2 receptor portion) (domain or fragment, UniProt O08852 4174-4293)
chain: ASHPSTSSSQPDGPSASLSRSTLKLEPEPSRLHAVFESLLVQFDRLNQATEDVYQLEQQLQSLQGHGHNGPPSSPSPGCFPGSQPALPSRLSRASQGLDQTVGPNRVSLWPNNKVHPSST
B2: IL2-HT193 (C-terminal, cytosolic 193 amino acids of mouse polycystin-1 fused to the extracellular and transmembrane portion of the IL2 receptor) (domain or fragment, UniProt O08852 4101-4293)
chain: HALRGELYRPAWEPQDYEMVELFLRRLRLWMGFSKVKEFRHKVRFEGMDPLPSRSSRGSKSSPVVLPPSSGSEASHPSTSSSQPDGPSASLSRSTLKLEPEPSRLHAVFESLLVQFDRLNQATEDVYQLEQQLQSLQGHGHNGPPSSPSPGCFPGSQPALPSRLSRASQGLDQTVGPNRVSLWPNNKVHPSST
B3: IL2-HT193 F4145A (domain or fragment, UniProt O08852 4101-4293)
chain: HALRGELYRPAWEPQDYEMVELFLRRLRLWMGFSKVKEFRHKVRAEGMDPLPSRSSRGSKSSPVVLPPSSGSEASHPSTSSSQPDGPSASLSRSTLKLEPEPSRLHAVFESLLVQFDRLNQATEDVYQLEQQLQSLQGHGHNGPPSSPSPGCFPGSQPALPSRLSRASQGLDQTVGPNRVSLWPNNKVHPSST
B4: IL2-HT193 V4143A (domain or fragment, UniProt O08852 4101-4293)
chain: HALRGELYRPAWEPQDYEMVELFLRRLRLWMGFSKVKEFRHKARFEGMDPLPSRSSRGSKSSPVVLPPSSGSEASHPSTSSSQPDGPSASLSRSTLKLEPEPSRLHAVFESLLVQFDRLNQATEDVYQLEQQLQSLQGHGHNGPPSSPSPGCFPGSQPALPSRLSRASQGLDQTVGPNRVSLWPNNKVHPSST
B5: IL2-HA74 (membrane proximal 74 amino acids of the C-terminal tail of PC1 fused to the IL2 receptor portion) (domain or fragment, UniProt O08852 4101-4174)
chain: HALRGELYRPAWEPQDYEMVELFLRRLRLWMGFSKVKEFRHKVRFEGMDPLPSRSSRGSKSSPVVLPPSSGSEA

By UniProt entry, the sequences of proteins in these tests, tags left out. Where a name states a change or a piece, a line headed by the entry shows the natural chain unless it says otherwise. Chains listed by the source or under a name are the forms on record and can include a tag or linker.
UniProt P62136: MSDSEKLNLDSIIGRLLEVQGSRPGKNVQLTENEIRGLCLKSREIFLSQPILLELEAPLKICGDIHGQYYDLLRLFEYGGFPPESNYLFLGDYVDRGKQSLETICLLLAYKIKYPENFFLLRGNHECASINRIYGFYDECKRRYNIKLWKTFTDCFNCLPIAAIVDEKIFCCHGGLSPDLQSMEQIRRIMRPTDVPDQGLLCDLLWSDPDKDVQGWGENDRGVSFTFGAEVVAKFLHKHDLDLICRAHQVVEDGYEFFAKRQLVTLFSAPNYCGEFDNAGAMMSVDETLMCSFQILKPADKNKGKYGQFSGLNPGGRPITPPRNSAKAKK
IL2-0 (IL2 construct lacking PC1 sequence) (P01589, form named): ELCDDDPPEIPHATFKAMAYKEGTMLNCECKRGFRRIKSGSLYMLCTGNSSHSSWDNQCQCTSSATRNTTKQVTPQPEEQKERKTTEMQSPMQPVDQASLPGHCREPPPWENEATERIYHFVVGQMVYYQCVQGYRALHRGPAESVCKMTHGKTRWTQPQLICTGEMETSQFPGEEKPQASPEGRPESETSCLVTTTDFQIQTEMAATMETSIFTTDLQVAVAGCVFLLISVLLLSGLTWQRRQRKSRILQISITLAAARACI

These are yes or no findings as the source states them, for the method shown. Binding seen in cells or lysates may run through a third protein. Some entries that bind do so weakly or less than the wild type. Sequences can lack the tags named with a protein.

The target of one experiment is HA epitope-tagged protein phosphatase-1α (UniProt P62136). Nature of the experiment: co-IP; 293T cells co-transfected with HA-PP1α and IL2 fusion proteins; lysates (150 mM NaCl, 1% Triton X-100, 0.5% NP40) precipitated with agarose-conjugated anti-HA (F-7), 2 h, 4°C; washed six times with 300 mM NaCl; blot with anti-IL2 antibodies.
On to “IL2-0 (IL2 construct lacking PC1 sequence) (from UniProt P01589 22-269)”, for which the binding entry is reported as “no binding”. On the same count and under the same terms, in the case of B1 it was “binds”. Take B2: the binding result is listed as “binds”.

Regarding B3, the binding entry is given as “binds”. Take B4: the binding entry is “binds”.

As to B5, the binding result was “binds weakly”.

For a further experiment, the target named is T1, sIg-HT193 (C-terminal, cytosolic 193 amino acids of PC1 fused to the membrane targeting cassette sIg.7) (mouse) (UniProt O08852).
T1 sequence: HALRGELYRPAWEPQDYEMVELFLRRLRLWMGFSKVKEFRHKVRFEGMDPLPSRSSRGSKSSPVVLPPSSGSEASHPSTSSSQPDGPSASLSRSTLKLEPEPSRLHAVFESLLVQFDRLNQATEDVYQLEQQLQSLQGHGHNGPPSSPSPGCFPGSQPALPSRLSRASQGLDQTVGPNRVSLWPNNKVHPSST
Nature of the experiment: co-IP; 293T cells co-transfected with HA-PP1α and sIg constructs; lysates precipitated with protein A/G+ agarose to pull down the sIg constructs; blot with anti-HA.
With “HA epitope-tagged protein phosphatase-1α (from UniProt P62136 1-330) (enzyme)”, the binding result is on record as “binds”.
